Test [1] concerns the target T1, SPAST-M1 (expression plasmid of Fig. 4A) (human) (UniProt Q9UBP0).
T1 sequence: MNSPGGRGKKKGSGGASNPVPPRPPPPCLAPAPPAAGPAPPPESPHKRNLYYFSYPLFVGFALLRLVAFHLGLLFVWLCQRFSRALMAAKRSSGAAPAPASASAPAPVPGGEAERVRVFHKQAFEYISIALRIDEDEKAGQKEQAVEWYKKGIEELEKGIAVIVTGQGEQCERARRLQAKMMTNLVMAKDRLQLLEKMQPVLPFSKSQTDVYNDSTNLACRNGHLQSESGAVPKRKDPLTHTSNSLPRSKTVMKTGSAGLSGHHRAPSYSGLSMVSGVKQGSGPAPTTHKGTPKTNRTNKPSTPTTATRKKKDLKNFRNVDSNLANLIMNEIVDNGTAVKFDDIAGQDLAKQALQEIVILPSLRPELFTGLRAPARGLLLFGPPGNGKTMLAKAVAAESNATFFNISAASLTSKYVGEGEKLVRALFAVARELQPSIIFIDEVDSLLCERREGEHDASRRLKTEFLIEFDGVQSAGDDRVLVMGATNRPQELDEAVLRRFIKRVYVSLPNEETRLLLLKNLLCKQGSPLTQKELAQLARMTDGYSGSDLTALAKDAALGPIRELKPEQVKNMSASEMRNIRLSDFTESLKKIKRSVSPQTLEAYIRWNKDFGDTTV
The test is described as follows: co-IP; HEK293 co-transfected with expression plasmids of SPAST-M1 and CK2α or CK2β; immunoprecipitation and western blot (Fig. 4A). For orientation: Immunoblotting shows a protein as a band on a membrane.

Amino acid sequences for entries named in this document (tags omitted). A change or cut given only in a name is not applied to a line headed by its entry.
UniProt Q9UF56: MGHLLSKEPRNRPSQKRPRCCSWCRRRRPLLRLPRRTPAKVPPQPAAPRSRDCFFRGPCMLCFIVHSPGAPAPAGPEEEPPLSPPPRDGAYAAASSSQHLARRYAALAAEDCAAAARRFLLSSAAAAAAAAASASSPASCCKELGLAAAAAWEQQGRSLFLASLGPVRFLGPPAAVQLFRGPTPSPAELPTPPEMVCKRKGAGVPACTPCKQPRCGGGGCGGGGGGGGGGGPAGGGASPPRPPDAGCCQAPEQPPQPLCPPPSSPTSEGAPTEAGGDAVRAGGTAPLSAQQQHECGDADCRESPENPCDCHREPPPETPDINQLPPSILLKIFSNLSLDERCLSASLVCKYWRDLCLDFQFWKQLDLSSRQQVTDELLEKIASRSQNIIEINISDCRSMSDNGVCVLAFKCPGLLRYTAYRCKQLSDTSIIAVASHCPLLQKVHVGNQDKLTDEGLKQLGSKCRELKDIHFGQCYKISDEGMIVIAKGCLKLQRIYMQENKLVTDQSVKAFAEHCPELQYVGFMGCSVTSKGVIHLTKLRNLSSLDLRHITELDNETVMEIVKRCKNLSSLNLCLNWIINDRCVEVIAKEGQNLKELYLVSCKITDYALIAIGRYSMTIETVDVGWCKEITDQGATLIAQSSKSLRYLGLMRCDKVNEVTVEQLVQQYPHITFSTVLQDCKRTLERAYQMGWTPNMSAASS
UniProt P67870: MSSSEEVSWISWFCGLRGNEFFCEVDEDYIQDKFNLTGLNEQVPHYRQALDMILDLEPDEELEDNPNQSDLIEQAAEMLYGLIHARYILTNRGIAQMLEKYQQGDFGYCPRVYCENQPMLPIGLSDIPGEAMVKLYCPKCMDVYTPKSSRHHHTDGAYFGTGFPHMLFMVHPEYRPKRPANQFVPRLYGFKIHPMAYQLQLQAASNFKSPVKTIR
UniProt P68400: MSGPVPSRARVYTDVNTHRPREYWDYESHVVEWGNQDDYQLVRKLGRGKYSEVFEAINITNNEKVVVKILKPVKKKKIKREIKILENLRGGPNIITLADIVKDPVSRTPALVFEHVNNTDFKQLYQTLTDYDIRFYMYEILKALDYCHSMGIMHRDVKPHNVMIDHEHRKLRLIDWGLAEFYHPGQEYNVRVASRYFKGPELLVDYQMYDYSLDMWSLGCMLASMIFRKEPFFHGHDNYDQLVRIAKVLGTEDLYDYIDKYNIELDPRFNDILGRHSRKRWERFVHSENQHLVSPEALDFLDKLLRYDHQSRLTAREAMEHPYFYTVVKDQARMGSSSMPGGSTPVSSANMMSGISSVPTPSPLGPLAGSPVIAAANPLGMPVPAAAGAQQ
UniProt P63208: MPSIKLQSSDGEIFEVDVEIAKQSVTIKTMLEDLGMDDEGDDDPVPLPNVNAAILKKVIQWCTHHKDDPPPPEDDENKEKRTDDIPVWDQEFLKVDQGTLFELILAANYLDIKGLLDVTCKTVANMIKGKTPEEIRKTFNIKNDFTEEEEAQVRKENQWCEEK

A further test has as its target T2, GST-KLHL12 (human) (UniProt Q53G59).
T2 sequence: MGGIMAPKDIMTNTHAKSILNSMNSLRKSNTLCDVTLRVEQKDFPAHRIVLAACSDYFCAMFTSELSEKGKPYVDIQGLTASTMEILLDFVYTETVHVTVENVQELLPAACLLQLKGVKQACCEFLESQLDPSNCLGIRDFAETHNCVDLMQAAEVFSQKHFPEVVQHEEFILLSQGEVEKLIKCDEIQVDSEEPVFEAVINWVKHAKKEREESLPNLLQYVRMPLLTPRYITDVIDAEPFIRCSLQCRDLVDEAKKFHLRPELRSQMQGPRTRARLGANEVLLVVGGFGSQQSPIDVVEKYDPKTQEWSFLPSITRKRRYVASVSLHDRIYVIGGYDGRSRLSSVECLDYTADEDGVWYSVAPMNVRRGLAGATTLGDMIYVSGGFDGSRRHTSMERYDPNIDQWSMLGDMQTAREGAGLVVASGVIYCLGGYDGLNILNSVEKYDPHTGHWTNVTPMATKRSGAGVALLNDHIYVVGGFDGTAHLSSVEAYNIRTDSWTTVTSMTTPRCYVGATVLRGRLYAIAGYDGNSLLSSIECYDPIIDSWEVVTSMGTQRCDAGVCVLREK
Briefly: pull-down; in vitro binding assay: purified recombinant proteins from E. coli, 0.5 μg each in 200 μl 1 × PBS, 0.1% NP-40, pulled down with glutathione sepharose beads (Fig. 2I); both purified.

Test [2] deals with T3, Flag-SPAST-M1 (human) (UniProt Q9UBP0).
T3 sequence: T1 sequence
Briefly: co-IP; HEK293 transfected with Flag-SPAST-M1; anti-Flag beads; western blot for endogenous proteins (Fig. S1B, Fig. 2C); NET gel buffer.

Test [3] addresses T3, Flag-SPAST-M1 (human). Briefly: co-IP; nuclear fraction of HEK293 transfected with the indicated plasmids and treated with MG132; anti-Flag magnetic beads (Fig. 3D, E).
In test [4] the target is T4, Flag-SPAST-M87 (human) (UniProt Q9UBP0).
T4 sequence: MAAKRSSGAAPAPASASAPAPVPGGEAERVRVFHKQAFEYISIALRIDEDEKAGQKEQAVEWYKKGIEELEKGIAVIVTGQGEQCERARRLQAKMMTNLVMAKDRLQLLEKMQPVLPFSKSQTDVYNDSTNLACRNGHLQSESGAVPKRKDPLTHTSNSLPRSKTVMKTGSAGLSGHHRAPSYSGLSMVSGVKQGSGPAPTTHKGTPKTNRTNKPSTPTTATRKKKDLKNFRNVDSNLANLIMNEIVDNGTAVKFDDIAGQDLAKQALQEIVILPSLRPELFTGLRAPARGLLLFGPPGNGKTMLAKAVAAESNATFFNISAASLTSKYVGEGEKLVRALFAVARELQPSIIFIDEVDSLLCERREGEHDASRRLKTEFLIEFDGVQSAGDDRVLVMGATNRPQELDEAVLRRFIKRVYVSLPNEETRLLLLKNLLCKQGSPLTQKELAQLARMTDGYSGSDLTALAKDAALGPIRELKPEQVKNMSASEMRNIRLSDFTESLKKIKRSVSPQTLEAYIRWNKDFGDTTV
Described as above.

The target of test [5] is T3, Flag-SPAST-M1 (human). The test is described as follows: co-IP; HEK293 transfected with the indicated plasmids (Flag-SPAST constructs); anti-Flag magnetic beads; western blot (Fig. 2E, Fig. 6B).
The target of test [6] is T5, Flag-SPAST-NT (1–250 a.a.) (human) (UniProt Q9UBP0).
T5 sequence: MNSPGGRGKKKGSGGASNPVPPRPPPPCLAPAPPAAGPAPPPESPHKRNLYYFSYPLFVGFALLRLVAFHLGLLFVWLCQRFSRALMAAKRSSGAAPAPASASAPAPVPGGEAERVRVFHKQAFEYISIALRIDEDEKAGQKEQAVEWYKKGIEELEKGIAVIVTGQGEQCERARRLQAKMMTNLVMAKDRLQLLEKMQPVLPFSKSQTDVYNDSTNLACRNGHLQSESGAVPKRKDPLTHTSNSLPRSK
The test is described as above.

Test [7] addresses T4, Flag-SPAST-M87 (human). The description is as above.
In test [8] the target is T6, Flag-SPAST-M1 Y52C (human) (UniProt Q9UBP0).
T6 sequence: T1 sequence with Y52C
The test is described as above.

The target in test [9] is T3, Flag-SPAST-M1 (human). Briefly: co-IP; cytoplasmic fraction of HEK293 transfected with the indicated plasmids and treated with MG132; anti-Flag magnetic beads (Fig. 3D, E).
Test [10] deals with T4, Flag-SPAST-M87 (human). Described as above.
Test [11] concerns the target FBXL17 (F-box and leucine-rich repeat protein 17) on the HuProt protein microarray (human) (UniProt Q9UF56). The test is described as follows: peptide or protein array; HuProt human protein microarray (over 20,000 full-length recombinant human proteins); 3 μg biotinylated His-SPAST on the array for 8 h at 4 °C; detected with streptavidin-Alexa-Fluor 635; both purified.

The target in test [12] is endogenous FBXL17 (ReNcell CX) (human (endogenous in ReNcell CX)) (UniProt Q9UF56). Briefly: co-IP; endogenous proteins, ReNcell CX lysate in NET gel buffer; antibodies against FBXL17 or control IgG overnight at 4 °C, Protein A magnetic beads.
The next test addresses Flag-FBXL17 (human) (UniProt Q9UF56). The test is described as follows: co-IP; HEK293 co-transfected with Flag-tagged F-box and HA-SPAST-M1 constructs; immunoprecipitation-western blot (Fig. 2H).

Positions count from the first letter of the chain named. These are yes or no findings as the source states them, for the method shown. For some of these results: In cells and extracts the contact can be indirect. Some entries that bind do so weakly or less than the wild type. For some of these results: Where a sequence is shown, tags or fusion partners need not be part of it.

As to CK2β (from UniProt P67870 1-215), the binding entry in test [1] is “binds”. With “His-tagged FBXL17-ΔNT1 (318-701a.a.) (from UniProt Q9UF56 318-701) (domain or fragment)”, the binding result in the test with GST-KLHL12 (human) is recorded as “binds”. Consider CK2α (from UniProt P68400 1-391), for which, in test [1], the binding entry is “no binding”. In the case of “endogenous Skp1 (HEK293) (from UniProt P63208 1-163)”, in the test with Flag-SPAST-M1 (human) [2], the binding entry is on record as “binds”. The same measure, in the same setting: the result for “endogenous FBXL17 (HEK293) (from UniProt Q9UF56 1-701)” reads “binds”. As for “FBXL17 in HEK293 cells transfected with the indicated plasmids (Fig. 2E, 3D, 3E, 6B) (from UniProt Q9UF56 1-701)”, the binding entry in the test with Flag-SPAST-M1 (human) [3] is listed as “binds”; with Flag-SPAST-M87 (human) [4] it was “no binding”; with Flag-SPAST-M1 (human) [5] it was “binds”; in test [6], “binds”; in the test with Flag-SPAST-M87 (human) [7], “no binding”; in test [8] it was “no binding”. Besides, the binding result with Flag-SPAST-M1 (human) [9] is listed as “binds”; with Flag-SPAST-M87 (human) [10], “no binding”.

B1: biotinylated His-SPAST-M1 (natural protein, human, UniProt Q9UBP0 1-616, looked up)
chain: T1 sequence
modifications: biotin (biotinylated, site not stated)
notes: The methods call it His-SPAST; the results call it His-SPAST-M1; also called His-tagged SPAST protein; source: E. coli BL21 (pET28a-His-SPAST), purified (Ni-NTA)
As to B1, the binding entry in test [11] is “binds”.

B2: endogenous SPAST-M1 (ReNcell CX) (protein, UniProt Q9UBP0 1-616)
chain: T1 sequence
Regarding B2, in [12], the binding result was “binds”.

B3: HA-SPAST-M1 (protein, UniProt Q9UBP0 1-616)
chain: T1 sequence
Regarding B3, the binding entry with Flag-FBXL17 (human) is reported as “binds”.

The values are drawn from paper PMC9308218, “FBXL17/spastin axis as a novel therapeutic target of hereditary spastic paraplegia” (Cell & Bioscience, 2022).
